{
  "source": "paper PMC4336329",
  "about": "(PLoS ONE, 2015)",
  "note": "About 14,000 (4.5%) of roughly 310,000 compounds showed an effect of 50% or more. The effect is printed as a negative number. This is one part of the list.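 Note: peak tail current of the secondary pulse compared with the same well before compound.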",
  "data": [
    {"target": "human ether-à-go-go-related gene (hERG) potassium channel (human, UniProt Q12809)", "sequence (Q12809 whole entry, looked up)": "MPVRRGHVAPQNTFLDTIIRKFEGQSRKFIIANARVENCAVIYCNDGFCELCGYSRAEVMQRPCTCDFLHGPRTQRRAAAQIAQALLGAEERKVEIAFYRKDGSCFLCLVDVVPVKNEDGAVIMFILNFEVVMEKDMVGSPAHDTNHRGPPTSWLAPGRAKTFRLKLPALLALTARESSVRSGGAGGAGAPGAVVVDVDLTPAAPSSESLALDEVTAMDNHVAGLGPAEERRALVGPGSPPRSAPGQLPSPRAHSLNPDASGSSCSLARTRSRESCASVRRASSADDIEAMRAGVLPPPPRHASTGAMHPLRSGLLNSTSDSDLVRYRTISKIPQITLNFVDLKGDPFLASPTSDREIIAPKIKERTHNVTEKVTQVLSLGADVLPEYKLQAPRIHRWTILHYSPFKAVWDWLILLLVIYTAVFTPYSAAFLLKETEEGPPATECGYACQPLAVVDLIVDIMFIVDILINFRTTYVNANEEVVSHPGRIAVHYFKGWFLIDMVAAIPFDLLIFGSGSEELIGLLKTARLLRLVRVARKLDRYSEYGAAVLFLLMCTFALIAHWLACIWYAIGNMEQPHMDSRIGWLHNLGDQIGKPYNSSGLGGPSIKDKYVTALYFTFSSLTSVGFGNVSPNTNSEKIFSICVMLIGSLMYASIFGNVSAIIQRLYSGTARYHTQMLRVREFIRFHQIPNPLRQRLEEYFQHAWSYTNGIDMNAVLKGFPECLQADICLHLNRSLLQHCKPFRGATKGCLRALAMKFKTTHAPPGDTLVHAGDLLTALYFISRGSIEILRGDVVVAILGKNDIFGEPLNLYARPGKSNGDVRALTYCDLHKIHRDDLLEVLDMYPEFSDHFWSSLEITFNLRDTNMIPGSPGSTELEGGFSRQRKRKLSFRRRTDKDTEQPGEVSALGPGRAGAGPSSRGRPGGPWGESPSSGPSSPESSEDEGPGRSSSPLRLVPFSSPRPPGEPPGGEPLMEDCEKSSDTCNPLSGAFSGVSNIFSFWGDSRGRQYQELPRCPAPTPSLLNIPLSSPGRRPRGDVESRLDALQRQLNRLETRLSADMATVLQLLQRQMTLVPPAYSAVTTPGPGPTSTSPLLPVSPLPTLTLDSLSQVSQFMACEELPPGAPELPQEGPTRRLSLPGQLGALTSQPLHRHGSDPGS", "assay": "primary screen, population patch clamp on CHO cells stably expressing hERG", "units": {"hERG current change (%, negative = inhibition) at 10uM": "%"}, "values": [
      {"smiles": "O=[N+]([O-])c1ccc(Cn2cc(-c3cccc(C(F)(F)F)c3)nn2)cc1", "hERG current change (%, negative = inhibition) at 10uM": -24.9},
      {"smiles": "O=C(CCCc1ccccc1)NCCS(=O)(=O)N1CCN(c2ccc(F)cc2)CC1", "hERG current change (%, negative = inhibition) at 10uM": -39.3},
      {"smiles": "CCn1c(CCNC(=O)c2ccc(Cl)cc2)nnc1SCC(=O)NC1CCCC1", "hERG current change (%, negative = inhibition) at 10uM": -19.6},
      {"smiles": "COc1ccccc1/C=C1\\SC(=S)N(NS(=O)(=O)c2ccccc2)C1=O", "hERG current change (%, negative = inhibition) at 10uM": 8.33},
      {"smiles": "Cc1ccc(C)c(N2CCN(C(=O)C3CCN(c4nnc(N5CCCC5=O)s4)CC3)CC2)c1", "hERG current change (%, negative = inhibition) at 10uM": -6.06},
      {"smiles": "CCCCCOC(=O)Cn1c(=O)oc2ccc(C)cc21", "hERG current change (%, negative = inhibition) at 10uM": -10.6},
      {"smiles": "COc1cc(/C=C2\\SC(=O)NC2=O)ccc1Oc1ccc([N+](=O)[O-])cn1", "hERG current change (%, negative = inhibition) at 10uM": -10.4},
      {"smiles": "CC(C)C(=O)NC(NC(=S)NC1CCS(=O)(=O)C1)C(Cl)(Cl)Cl", "note": "(stereo not shown)", "hERG current change (%, negative = inhibition) at 10uM": 13.3},
      {"smiles": "Cn1c(SCC(N)=O)nnc1C1CCN(C(=O)NC2CCCCC2)CC1", "hERG current change (%, negative = inhibition) at 10uM": 15.1},
      {"smiles": "CCOC(=O)C1CCN(S(=O)(=O)c2ccc3c(ccn3C)c2)CC1", "hERG current change (%, negative = inhibition) at 10uM": -0.0195},
      {"smiles": "CCOCCCn1c(SCC(=O)NCc2ccc3c(c2)OCO3)nc2ccccc2c1=O", "hERG current change (%, negative = inhibition) at 10uM": -59},
      {"smiles": "CCOC(=O)CNC(=O)c1nn(-c2ccc(OCC)cc2)c(=O)c2ccccc12", "hERG current change (%, negative = inhibition) at 10uM": -13.7},
      {"smiles": "CCOC(=O)c1cccc(NC(=O)C2CCCN(S(=O)(=O)c3cnc[nH]3)C2)c1", "note": "(stereo not shown)", "hERG current change (%, negative = inhibition) at 10uM": -5.05},
      {"smiles": "COc1cc2c3c(c1OC)C1(C=CC(=O)C=C1)CC3N(C(=O)c1ccccc1)CC2", "note": "(stereo not shown)", "hERG current change (%, negative = inhibition) at 10uM": -18.6},
      {"smiles": "Fc1ccc(C2Nc3cccc4cccc(c34)N2)cc1", "hERG current change (%, negative = inhibition) at 10uM": 30.5},
      {"smiles": "COc1cc(COc2ccc(-c3nnco3)cc2)ccc1OC(F)F", "hERG current change (%, negative = inhibition) at 10uM": 30.7},
      {"smiles": "CCOC(=O)CNS(=O)(=O)CCN1C(=O)c2ccccc2C1=O", "hERG current change (%, negative = inhibition) at 10uM": 1.65},
      {"smiles": "CCn1c(N)c(C(=O)COC(=O)CCc2nc3ccccc3c(=O)[nH]2)c(=O)[nH]c1=O", "hERG current change (%, negative = inhibition) at 10uM": 2.58},
      {"smiles": "COc1ccc(N(CC(=O)N/N=C/c2cccnc2)S(=O)(=O)c2ccc(C)cc2)cc1OC", "hERG current change (%, negative = inhibition) at 10uM": -14.2},
      {"smiles": "Cc1ccc(NC(=O)CC(=O)c2ccccc2)cc1C", "hERG current change (%, negative = inhibition) at 10uM": 7.56},
      {"smiles": "O=C(Nc1ccnn1C1CCN(Cc2ccccn2)CC1)c1cccc(F)c1", "hERG current change (%, negative = inhibition) at 10uM": -7.3},
      {"smiles": "Cn1c(/C(C#N)=C(\\O)c2ccc(S(=O)(=O)N3CCCCC3)cc2)nc2ccccc21", "hERG current change (%, negative = inhibition) at 10uM": 12.1},
      {"smiles": "Cc1cc(C)cc(NC(=O)c2cc(C)nn2C)c1", "hERG current change (%, negative = inhibition) at 10uM": 0.0741},
      {"smiles": "CC1Cc2nc(SCC(=O)Nc3ccc(F)cc3F)n(C)c(=O)c2S1", "note": "(stereo not shown)", "hERG current change (%, negative = inhibition) at 10uM": -22},
      {"smiles": "Cc1ccc2c(=O)c(CN3CCCCCC3)c(C)[nH]c2c1C", "hERG current change (%, negative = inhibition) at 10uM": -6.86},
      {"smiles": "Cc1csc(NC(=O)CSc2nncc(=O)n2N)n1", "hERG current change (%, negative = inhibition) at 10uM": 19},
      {"smiles": "O=C(NNC(=O)c1cccnc1)c1ccncc1", "hERG current change (%, negative = inhibition) at 10uM": 14.1},
      {"smiles": "CCN1C(=O)C(CC(=O)Nc2ccc(OC)cc2)N(CCCN2CCN(c3ccc(OC)cc3)CC2)C1=S", "note": "(stereo not shown)", "hERG current change (%, negative = inhibition) at 10uM": -68},
      {"smiles": "S=C(NC1CCCCC1)N1CCN(Cc2ccccc2Cl)CC1", "hERG current change (%, negative = inhibition) at 10uM": 9.61},
      {"smiles": "CCc1ccc(N2CC(C(=O)Nc3ccc(S(=O)(=O)N4CCCCC4)cc3)CC2=O)cc1", "note": "(stereo not shown)", "hERG current change (%, negative = inhibition) at 10uM": 5.45},
      {"smiles": "CCOc1ccccc1C(=O)NC(C(=O)Nc1cccc(S(N)(=O)=O)c1)C(C)C", "note": "(stereo not shown)", "hERG current change (%, negative = inhibition) at 10uM": 3.21},
      {"smiles": "N#Cc1c(NC2CCCCC2)nc(-c2ccco2)c2c1CCCC2", "hERG current change (%, negative = inhibition) at 10uM": 21.2},
      {"smiles": "C=CCN1C(=O)C(Cc2cccc(Cl)c2)SC1=Nc1ccc(C(=O)O)cc1", "note": "(stereo not shown)", "hERG current change (%, negative = inhibition) at 10uM": -10.8},
      {"smiles": "CC(CNS(=O)(=O)c1ccccc1)(c1ccccc1)N1CCOCC1.Cl", "note": "(stereo not shown)", "hERG current change (%, negative = inhibition) at 10uM": 6.84},
      {"smiles": "COC(=O)CSc1nc2c(c(-c3ccc(C)o3)c1C#N)CCCC2", "hERG current change (%, negative = inhibition) at 10uM": -1.42},
      {"smiles": "O=c1[nH]c2ccc(NC(=S)Nc3ccc(Cl)cc3Cl)cc2[nH]1", "hERG current change (%, negative = inhibition) at 10uM": 8.1},
      {"smiles": "O=C(O)c1ccc(-n2nnnc2Oc2ccccc2C(=O)N2CCOCC2)cc1", "hERG current change (%, negative = inhibition) at 10uM": 7.52},
      {"smiles": "Cn1c(COc2ccc(F)cc2)nc2ccccc21", "hERG current change (%, negative = inhibition) at 10uM": -0.759},
      {"smiles": "Cc1cc(NC(=O)COC(=O)C2CC(=O)N(c3ccccc3Cl)C2)no1", "note": "(stereo not shown)", "hERG current change (%, negative = inhibition) at 10uM": 21.2},
      {"smiles": "COc1ccc(OCC(=O)N2CCN(C(=O)c3ccc(F)cc3)CC2)cc1", "hERG current change (%, negative = inhibition) at 10uM": -20.2},
      {"smiles": "CCCn1c(CNC(=O)c2ccccc2)nc2ccccc21", "hERG current change (%, negative = inhibition) at 10uM": -17.7},
      {"smiles": "O=C(Nc1cccc(Br)c1)c1ccc2snnc2c1", "hERG current change (%, negative = inhibition) at 10uM": 1.34},
      {"smiles": "O=C(CC12CC3CC(CC(C3)C1)C2)N/N=C/c1ccc([N+](=O)[O-])o1", "hERG current change (%, negative = inhibition) at 10uM": -15.7},
      {"smiles": "COc1ccc(C(C(=O)NCC2CCCO2)N(Cc2ccc(F)cc2)C(=O)CNC(=O)c2ccco2)cc1OC", "note": "(stereo not shown)", "hERG current change (%, negative = inhibition) at 10uM": 20.6},
      {"smiles": "CN1CCN(C(CNS(=O)(=O)c2ccc(Br)cc2)c2ccc3c(c2)OCO3)CC1", "note": "(stereo not shown)", "hERG current change (%, negative = inhibition) at 10uM": -79.8},
      {"smiles": "COCCN(Cc1ccccc1)C(=O)C1CCN(S(=O)(=O)c2ccc(OC)c(OC)c2)CC1", "hERG current change (%, negative = inhibition) at 10uM": -8.3},
      {"smiles": "Cc1nc2c3ccccc3nc(NNC(=O)CCC(=O)N3CCN(c4ccccc4)CC3)n2n1", "hERG current change (%, negative = inhibition) at 10uM": -28.5},
      {"smiles": "O=C1CSC(c2ccc(F)cc2)N1c1ccccc1F", "note": "(stereo not shown)", "hERG current change (%, negative = inhibition) at 10uM": 3.29},
      {"smiles": "O=C(Nc1ccccc1N1CCCCC1)c1cccc([N+](=O)[O-])c1", "hERG current change (%, negative = inhibition) at 10uM": 9.03},
      {"smiles": "COc1ccc(C(=O)COC(=O)CCN=C2NS(=O)(=O)c3ccccc32)c(OC)c1", "hERG current change (%, negative = inhibition) at 10uM": -30.1},
      {"smiles": "CC(C)CC[n+]1ccn(-c2nc3ccccc3nc2[N-]S(=O)(=O)c2ccc(Cl)cc2)c1", "hERG current change (%, negative = inhibition) at 10uM": -2.84},
      {"smiles": "Cc1ccc(CONC(=O)c2ccc(C)cc2)cc1", "hERG current change (%, negative = inhibition) at 10uM": -3.04},
      {"smiles": "Cc1cn(-c2ccc(Br)cc2)[nH]c1=O", "hERG current change (%, negative = inhibition) at 10uM": 8.3},
      {"smiles": "Cl.Clc1ccc(CNCCCSc2ncccn2)cc1", "hERG current change (%, negative = inhibition) at 10uM": -21.3},
      {"smiles": "CCCCOC(=O)Nc1ccccc1C(=O)N1CCCC1", "hERG current change (%, negative = inhibition) at 10uM": 0.12}
    ]}
  ]
}
